# In PubChem BioAssay (NCATS):
# The shares of active, inactive and inconclusive entries below differ from those in the screen. No potency is given beside an inconclusive call; the fits are too rough. The source made the active and inactive calls. Calls come from the whole dose curve; as a rule, active = well fitted inhibition curve with a large enough effect; inconclusive = small, poorly fitted or top-dose-only effect; inactive = no such curve, though single readings can be large or run the other way.
# Test: Primary qHTS for small molecule stabilizers of the endoplasmic reticulum resident proteome: Secreted ER Calcium Modulated Protein (SERCaMP) assay (AID 1508630)
# Conditions: SH-SY5Y GLuc-SERCaMP (Gaussia luciferase released on ER calcium loss) secretion, thapsigargin, luminescence; series mostly up to 38.4 µM
# How it was run: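 GLuc-SERCaMP-expressing SH-SY5Y cells, pretreated 16 h with compound, are challenged with thapsigargin to empty ER calcium stores; after 4 h, coelenterazine is added directly to the medium and luminescence is imaged.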
# Potency is the fitted concentration of half-maximal effect; tags give direction and shape of the fitted curve.
row,SMILES,Potency
1,COc1ccc2c(c1OC)C(=O)OC2[C@H]1c2c(cc3c(c2OC)OCO3)CCN1C (stereo partly drawn),inactive
2,NCC(=O)Nc1ccc(-n2nc(C(F)(F)F)cc2-c2ccc3c(ccc4ccccc43)c2)cc1,inactive
3,c1cc(OCCN2CCCCC2)cc(-c2n[nH]c3ccc(-c4ncn[nH]4)cc23)c1,"inconclusive [inhibitor, single point]"
4,CC(C)(S)[C@@H](N)C(=O)O,"inconclusive [inhibitor, partial curve]"
5,COc1cc2c(cc1OC)CC(=O)N(CCCN(C)C[C@H]1Cc3cc(OC)c(OC)cc31)CC2,inactive
6,C=C1c2cccc(O)c2C(O)=C2C(=O)[C@@]3(O)C(O)=C(C(N)=O)C(=O)[C@@H](N(C)C)[C@@H]3[C@@H](O)[C@H]12,inactive
7,CC(C)(CO)[C@@H](O)C(=O)NCCC(=O)O,"inconclusive [inhibitor, full curve, poor fit]"
8,COc1ccc2c(c1)CC[C@@H](CN(C)CC(=O)O)[C@H]2c1ccccc1,inactive
9,C=CC(=O)N1CCc2ccc(-n3c(=O)ccc4cnc5ccc(-c6cnn(C)c6)cc5c43)cc21,"inconclusive [inhibitor, partial curve]"
10,CCC(=O)NCC[C@@H]1CCc2ccc3c(c21)CCO3,inactive
11,COc1ccc2c(OCc3nnc4ccc(-c5ccccc5)nn34)ccnc2c1,inactive
12,N[C@@H](Cc1ccc(O)c(O)c1)C(=O)O,"inconclusive [inhibitor, full curve]"
13,CCOC(=O)N1c2ccc(C(F)(F)F)cc2[C@@H](N(Cc2cc(C(F)(F)F)cc(C(F)(F)F)c2)C(=O)OC)C[C@H]1CC,inactive
